Activation data for 85 compounds are collected here from PubChem BioAssay AID1645887 (National Center for Advancing Translational Sciences (NCATS), 2021).

Values joined by “and” are separate entries in the source; they are usually repeats but may differ in a detail not shown here. Identical values can stand only once. Screen size: about 16,000 compounds; about 40 (0.2%) were called active. Inconclusive results (about 1%) are left out. The call rests on the fitted dose curve; in most records, active means well fitted activation curve with a large enough effect; inconclusive means small, poorly fitted or top-dose-only effect, or another doubt; inactive means no such curve, though single readings can be large or run the other way. Some of the results follow.
On the % scale 0 is the no-effect control and ±100 the full control effect.

UniProt Q8WZA2, sequence (Q8WZA2 whole entry, looked up): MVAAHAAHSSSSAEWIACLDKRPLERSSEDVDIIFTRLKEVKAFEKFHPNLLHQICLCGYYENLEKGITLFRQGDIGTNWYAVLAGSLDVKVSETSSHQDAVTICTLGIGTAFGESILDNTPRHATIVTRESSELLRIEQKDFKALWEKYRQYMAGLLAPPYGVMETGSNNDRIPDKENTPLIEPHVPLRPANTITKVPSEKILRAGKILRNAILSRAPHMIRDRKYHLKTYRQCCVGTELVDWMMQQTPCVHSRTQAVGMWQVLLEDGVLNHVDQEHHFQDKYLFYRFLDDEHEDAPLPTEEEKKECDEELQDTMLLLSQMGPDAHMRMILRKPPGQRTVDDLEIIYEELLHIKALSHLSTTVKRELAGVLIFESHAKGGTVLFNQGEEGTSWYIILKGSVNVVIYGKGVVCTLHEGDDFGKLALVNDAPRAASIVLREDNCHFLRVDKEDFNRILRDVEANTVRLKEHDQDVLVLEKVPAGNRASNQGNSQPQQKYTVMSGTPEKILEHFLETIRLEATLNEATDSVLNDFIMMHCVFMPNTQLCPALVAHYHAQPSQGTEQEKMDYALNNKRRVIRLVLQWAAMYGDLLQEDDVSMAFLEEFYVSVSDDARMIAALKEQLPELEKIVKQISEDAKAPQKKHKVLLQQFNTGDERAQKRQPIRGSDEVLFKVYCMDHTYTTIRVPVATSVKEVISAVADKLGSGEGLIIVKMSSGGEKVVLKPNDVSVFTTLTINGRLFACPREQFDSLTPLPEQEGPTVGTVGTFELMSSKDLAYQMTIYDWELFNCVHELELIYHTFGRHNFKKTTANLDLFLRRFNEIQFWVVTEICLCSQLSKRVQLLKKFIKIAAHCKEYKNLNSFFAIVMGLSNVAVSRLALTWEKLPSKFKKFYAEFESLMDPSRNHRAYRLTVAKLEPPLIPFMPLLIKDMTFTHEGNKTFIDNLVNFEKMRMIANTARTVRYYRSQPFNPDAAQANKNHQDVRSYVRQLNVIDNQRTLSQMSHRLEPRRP

The assay has as its target Rap guanine nucleotide exchange factor 4 (Homo sapiens) (UniProt Q8WZA2). Briefly: Validation qHTS for agonist of cAMP-regulated guanine nucleotide exchange factor 4 (EPAC2).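 Further: exchange makes BODIPY-GDP fluorescence drop when released from Rap1B; series mostly up to about 150 µM.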 Particulars: EPAC2 Rap1B BODIPY-GDP exchange, fluorescence; activation: hits give high values. The method in brief:
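Fluorescent exchange assay: 100 nM EPAC2 with 250 nM RAP1B-BODIPY-GDP and 50 uM GDP; compound added, 5 min at room temperature, then read (ex 480/em 540 nm) every 5 min for 30 min. Normalized to 6.5 mM cAMP agonist control.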
With `COc1cc(=O)n2c(c1C(=O)NCc1ccc3c(c1)OCO3)CCN(C(=O)c1cccc(F)c1)CC2`, the activation was inactive: -7.83%.

With `NCC1O[C@@H](OC2C(N)CC(N)C(O)C2O[C@@H]2OC(CO)C(O)C2O)C(N)C(O)C1O` (stereo not given in full), the activation is inactive: -8.15%. The figure for `O=c1[nH]c(=O)n([C@@H]2O[C@H](CO)[C@@H](O)[C@H]2O)cc1Br` is inactive: 6.22%.

As to `Cc1cnc(C)c(-c2cc(F)cc3c2OC(CNC(=O)C2CCOC2)C3)n1` (stereo not given), the activation is inactive: -5.08%. Consider `COc1ccc2ccc(=O)oc2c1CC=C(C)C`, for which the activation is inactive: -25.7%. As for `C[C@@H]1CCC(=O)N(CC[C@H](Sc2ccc(Br)cc2)c2ccccc2)CC1`, the figure is inactive: 0.427%; as for `CS(=O)(=O)N1CCC[C@@]2(CCN(C(=O)Nc3ccccc3)C2)C1`, inactive: -0.213%. As for `CC1(C)[C@H](C(=O)O)N2C(=O)C[C@H]2S1(=O)=O`, the figure is inactive: 2.95%.

Take `NC1C(O)OC(CO)[C@@H](O)[C@@H]1O[C@H]1O[C@@H](C(=O)O)C(O)C(O)C1O` (stereo not given in full): the activation is inactive: 2.41%. Turning to `C=CS(=O)(=O)O`, the activation was inactive: 6.25%. As for `O=c1cnc2cnc(Oc3cccc(Cl)c3)nc2n1Cc1ccc(F)cc1`, the figure is inactive: 0.025%; as for `O=C(c1cn(C2CCCN(Cc3cc(Cl)ccc3O)C2)nn1)N1CCCCC1` (stereo not given), inactive: -0.543%. The figure for `NC(=O)[C@@H]1CCCN1C(=O)CCN1Cc2ccccc2OC(c2ccccc2F)C1` (stereo not given in full) is inactive: -4.16%; for `COc1cc2c3cc1Oc1cc(ccc1O)C[C@@H]1c4c(cc(OC)c(O)c4Oc4ccc(cc4)C[C@@H]3N(C)CC2)CC[N+]1(C)C` it is inactive: -7.35%; for `COC(=O)CC1C(C)(C)C(O)C2CC3=C4C=C(OC)OC(c5ccoc5)[C@]4(C)CCC3[C@@]1(C)C2=O` (stereo not given in full) it is inactive: 7.15%. Consider `CC(C)CN1CCC(=O)N(CCN=[N+]=[N-])CC1`, for which the activation was inactive: -7.23%. The figure for `Cn1c(=O)c(-c2ccc(Cl)cc2)nc2cnc(OCc3ccccc3)nc21` is inactive: -14.4%; for `Cc1nc(-c2ccc(Cl)cc2)oc1COC(C)(C)C(=O)O` it is inactive: -10.6%. As for `COCCn1c(=O)c(-c2ccc(OC)cc2)nc2cnc(Oc3cccc(Cl)c3)nc21`, the figure is inactive: 6.47%. The figure for `CN1CCc2cc(Cl)c(O)cc2[C@@H](c2ccccc2)C1` is inactive: -12.4% and inactive: 0.709% and inactive: -24.7%. In the case of `COc1ccccc1CNc1ncncc1-c1ccc2c(c1)OCO2`, the activation is inactive: -0.45%.

Turning to `Nc1ccc(N2C(=O)c3ccccc3C2=O)c(Cl)c1`, the activation is inactive: -21.3%. The figure for `CCNc1ncc2nc(-c3ccccc3)c(=O)n(C)c2n1` is inactive: -14.6%; for `CN(Cc1ccco1)c1ccnc(-c2cccnc2)n1` it is inactive: -0.387%; for `Cc1ncc(CO)c(CO)c1O` it is inactive: -10.1%. The figure for `Nc1nnnn1-c1ccccc1` is inactive: -2.53%; for `COc1ccccc1C1CN(CCNC(=O)c2sccc2Cl)Cc2ccccc2O1` (stereo not given) it is inactive: -2.19%; for `CCC1COCCS(=O)(=O)N1Cc1ccc(C)cc1` (stereo not given) it is inactive: -21.5%. As for `N#Cc1ccc(CN2CCCC3(CCN(S(=O)(=O)c4ccccc4)CC3)C2)cc1`, the figure is inactive: -7.36%. With `COc1ccc2c(c1)CCc1cnc(-n3ncc(C(=O)N4CCN(CCO)CC4)c3C3CC3)nc1-2`, the activation was inactive: -7.28%.

Regarding `Nc1ccc(O)c([N+](=O)[O-])c1`, the activation was inactive: 5.14%. The figure for `CCO/C([O-])=N/c1c[n+](N2CCOCC2)no1` is inactive: -4.45% and inactive: -0.689% and inactive: -12.5%. As for `O=C(Nc1cccc(F)c1)N1CC[C@@]2(CCCNC2)C1`, the figure is inactive: -21.3%; as for `CCc1c(C)[nH]c2c1C(=O)C(CN1CCOCC1)CC2` (stereo not given), inactive: -41.5% and inactive: -7.68%.

As to `COc1ccc(-c2nc3cnc(N4CCN(C)CC4)nc3n(Cc3cccs3)c2=O)cc1`, the activation was inactive: 10.6%.

`NC(=O)CNCCC(c1ccccc1)c1ccccc1`: the activation was inactive: 0.615%.

For `CC(=O)OCC1OC(Oc2cc(OC(C)=O)c3c(=O)cc(-c4ccc(OC(C)=O)c(OC(C)=O)c4)oc3c2)C(OC(C)=O)C(OC(C)=O)C1OC(C)=O` (stereo not given), the activation is inactive: -28.6%. As for `C=C1C2CC[C@@]3(C)C(c4ccoc4)OC(=O)C[C@@]13OC1CC(=O)C(C)(C)C(CC(=O)OC)[C@]12C` (stereo not given in full), the figure is inactive: -10.3%; as for `COc1cc(=O)n2c(c1C(=O)N(C)Cc1nonc1C)CCN(C(=O)c1cc(C)cc(C)c1)CC2`, inactive: -14.9%; as for `CC(=O)[C@@H]1[C@H]2[C@H](C(=O)[C@H]3OC[C@@H]2O3)[C@H]2C=Cc3ccccc3N21`, inactive: 18.9%. With `Clc1ccccc1-c1nc(N2CCNCC2)c2ccccc2n1`, the activation was inactive: -1.48%. As for `COc1cccc(Cn2c(=O)c(-c3ccc(Cl)cc3)nc3cnc(N4CCOCC4)nc32)c1`, the figure is inactive: 7.83%; as for `OC[C@]1(O)OC[C@@H](O)[C@H](O)[C@@H]1O`, inactive: -20.2%. The figure for `Cc1ccc(SCCN2CCC(C(C)(C)C)CCC2=O)cc1` (stereo not given) is inactive: -7.42%; for `Cc1occc1C(=O)NCCN1Cc2ccccc2OC(c2ccccc2F)C1` (stereo not given) it is inactive: 6.09%.

Turning to `Cc1ccc(S[C@@H](CCN2CC[C@H](NC(=O)OCc3ccccc3)CCC2=O)c2ccccc2)cc1`, the activation was inactive: -6.99%. The figure for `CC(C)c1c(O)c(-c2cc3c(c(C(C)C)c2O)CCC2C(C)(C)CCC[C@@]32C)cc2c1CCC1C(C)(C)CCC[C@@]21C` (stereo not given in full) is inactive: 3.06%. As for `Nc1ccc([N+](=O)[O-])cc1O`, the figure is inactive: -18.8%. The figure for `CC(=O)Nc1ccccc1-c1nc(CNC(=O)c2ccc(F)c(F)c2)c(C)o1` is inactive: -8.53%. For the compound `COc1ncc2nc(-c3ccccc3)c(=O)n(CCc3ccccc3)c2n1`, the activation is inactive: -3.34%.

Take `COc1cc(C(=O)NCCCCCC(=O)O)cc(OC)c1OC`: the activation was inactive: 7.6%. On to `Cc1noc(C)c1-c1cc(N(C)Cc2ccco2)ncn1`, for which the activation was inactive: -7.36%. The figure for `Cc1ccnn1CC(=O)N1CCOc2c(cc(-c3ncc(C(F)(F)F)cc3Cl)cc2OCC2CCCO2)C1` (stereo not given) is inactive: 1.98%.

Take `COCCNc1nc(-c2cccc(OC)c2)nc2ccccc12`: the activation is inactive: -20.7%. For the compound `COc1ccc(-c2nc3cnc(OC)nc3n(Cc3cccc(OC)c3)c2=O)cc1`, the activation is inactive: -15.5%.

On to `CC1=C(C(=O)O)N2C(=O)[C@@H](NC(=O)[C@H](N)C3=CCC=CC3)[C@H]2SC1`, for which the activation was inactive: 0.0061%.

Consider `N[C@@H](CCC(=O)N[C@@H](CS)C(=O)NCC(=O)O)C(=O)O`, for which the activation is inactive: -35.5%.

Turning to `O=C(c1ccco1)N1CCC2(CCCN(c3ccncc3)C2)CC1`, the activation is inactive: -14%. The figure for `CC(=O)OC[C@H]1O[C@@H](n2ncc(=O)[nH]c2=O)[C@H](OC(C)=O)[C@@H]1OC(C)=O` is inactive: 5.43%; for `CCCOC(=O)c1cc(O)c(O)c(O)c1` it is inactive: 6.33%. The figure for `c1nc(NCCN2CCOCC2)c2cc(-c3ccc4c(c3)OCO4)ccc2n1` is inactive: -11.6%; for `O=C(c1csnn1)N1CCC2(CCCN(C(c3ccccc3)c3ccccc3)C2)CC1` it is inactive: 7.91%; for `Cn1c(=O)c(-c2ccccc2)nc2cnc(OCc3ccccc3)nc21` it is inactive: -13.2%.

As for `COCCn1c(=O)c(-c2cn(C)c3ccccc23)nc2cnc(N3CCOCC3)nc21`, the activation is inactive: 3.79%. As for `CC(C)N=c1cc2n(-c3ccc(Cl)cc3)c3ccccc3nc-2cc1Nc1ccc(Cl)cc1`, the figure is inactive: -15.2%; as for `COCC(=O)N1CCC[C@@]2(CCN(Cc3ccc(C#N)cc3)C2)C1`, inactive: -13%; as for `COCCNc1cc(-c2ccccc2C(F)(F)F)ncn1`, inactive: -18.9%. For the compound `N[C@@H]1CONC1=O`, the activation is inactive: 1.13%. As for `COc1ccc2c(=O)c(C)c(-c3ccccc3)oc2c1CN(C)C`, the figure is inactive: 1.79%; as for `COc1cccc(Cn2c(=O)c(-c3cn(C)c4ccccc34)nc3cncnc32)c1`, inactive: -2.05%; as for `CCCCC(CC)CCC(CC(C)C)OS(=O)(=O)O` (stereo not given), inactive: -17% and inactive: -5.09%.

As for `COc1ccc(NC(=O)N2CC[C@@]3(CCCN(C(=O)c4cccc(F)c4)C3)C2)cc1`, the activation was inactive: -15.9%. With `O=C(c1cnccn1)N1CCC[C@@]2(CCN(c3ncccn3)C2)C1`, the activation was inactive: -20%. The figure for `COc1ncc2nc(-c3ccccc3)c(=O)n(C[C@H]3CCCO3)c2n1` is inactive: -2.4%; for `CN1C[C@H](C(=O)N[C@]2(C)O[C@@]3(O)[C@@H]4CCCN4C(=O)[C@H](Cc4ccccc4)N3C2=O)C[C@@H]2c3cccc4[nH]cc(c34)C[C@H]21` it is inactive: -2.03% and inactive: -17%; for `CN(Cc1ccco1)c1ncnc2ccc(-c3ccccc3Cl)cc12` it is inactive: -4.17%.

In the case of `O=C(O)COCCN1CCN(C(c2ccccc2)c2ccc(Cl)cc2)CC1` (stereo not given), the activation was inactive: -18% and inactive: 10% and inactive: -15.7%. As for `O=C1CCC[C@@H]2C[C@@]3(C[C@@H]4CCN1[C@H]24)Nc1ccccc1NC3=NCc1ccccc1`, the figure is inactive: -15.8%. As for `COC(=O)C[C@H]1c2cc(F)ccc2S(=O)(=O)N1c1ccc(N(C)C)cc1`, the figure is inactive: -15.9%; as for `O=C1c2ccccc2C(=O)C1c1ccc(Cl)cc1`, inactive: -0.0548%; as for `OCC1CCCN(c2nc3cc4c(cc3cc2CNCc2cccc(C(F)(F)F)c2)OCO4)C1` (stereo not given), inactive: 1.69%. The figure for `CC(=O)Oc1ccc(C(=C2CCCCC2)c2ccc(OC(C)=O)cc2)cc1` is inactive: -4.2%; for `O=C(c1cc(C(F)(F)F)cc(C(F)(F)F)c1)N1CCC[C@@]2(CCN(Cc3ccncc3)C2)C1` it is inactive: -34.2%. As to `COc1ccc2cc([C@H](C)CO)ccc2c1`, the activation was inactive: -5.75%.

With `O=C(O)c1ccccn1`, the activation was inactive: -4.28%.
